# Laboratory results: the supplement of paper PMC8728848
# The other results are listed elsewhere or left out.
# B1: CFEM-PPl (Pichia pastoris), F2QPV1 (protein)
# chain: AVATPPACLLACAAEVVKESSDCDALNNIQCICENEGSAIHACLESTCPDGLSSTALQSFEDVCESVGTEANLDE
# Columns and labels:
# Test in all cases: glycan array binding signal (z-score within array); higher = stronger binding
# Settings in all cases: glycan notation: IUPAC condensed, linker removed
# [1] = biological target: Neu5Ac(a2-6)GlcNAc(b1-4)GlcNAc(b1-4)GlcNAc
# Outline: (§1)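 Arrays were curated from the Consortium for Functional Glycomics database, 3228 in total, and kept only where the protein sequence was available. Binding is expressed as a within-array Z-score. This score was averaged across arrays of the same protein sequence at different concentrations or buffers and across linkers, and negative values can be read as non-binding.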
# [2] = biological target: Neu5Ac(a2-8)Neu5Ac
# Outline: as §1
# [3] = biological target: Neu5Ac(a2-8)Neu5Ac(a2-3)Gal(b1-3)GalNAc(b1-4)[Neu5Ac(a2-3)]Gal(b1-4)Glc
# Outline: as §1
# [4] = biological target: Neu5Ac(a2-8)Neu5Ac(a2-3)Gal(b1-3)GalNAc(b1-4)[Neu5Ac(a2-8)Neu5Ac(a2-3)]Gal(b1-4)Glc
# Outline: as §1
# [5] = biological target: Neu5Ac(a2-8)Neu5Ac(a2-3)Gal(b1-4)Glc
# Outline: as §1
# [6] = biological target: Neu5Ac(a2-8)Neu5Ac(a2-3)Gal(b1-4)GlcNAc
# Outline: as §1
# [7] = biological target: Neu5Ac(a2-8)Neu5Ac(a2-3)[Gal(b1-3)GalNAc(b1-4)]Gal(b1-4)Glc
# Outline: as §1
# [8] = biological target: Neu5Ac(a2-8)Neu5Ac(a2-3)[GalNAc(b1-4)]Gal(b1-4)Glc
# Outline: as §1
# [9] = biological target: Neu5Ac(a2-8)Neu5Ac(a2-8)Neu5Ac
# Outline: as §1
# [10] = biological target: Neu5Ac(a2-8)Neu5Ac(a2-8)Neu5Ac(a2-3)Gal(b1-4)Glc
# Outline: as §1
# [11] = biological target: Neu5Ac(a2-8)Neu5Ac(a2-8)Neu5Ac(a2-3)[Gal(b1-3)GalNAc(b1-4)]Gal(b1-4)Glc
# Outline: as §1
# [12] = biological target: Neu5Ac(a2-8)Neu5Ac(a2-8)Neu5Ac(a2-3)[GalNAc(b1-4)]Gal(b1-4)Glc
# Outline: as §1
# [13] = biological target: Neu5Ac(a2-8)Neu5Ac(a2-8)Neu5Ac(a2-8)Neu5Ac(a2-3)[GalNAc(b1-4)]Gal(b1-4)Glc
# Outline: as §1
# [14] = biological target: Neu5Ac(a2-8)Neu5Gc(a2-3)Gal(b1-4)GlcNAc
# Outline: as §1
# [15] = biological target: Neu5Ac(b2-6)Gal(b1-4)GlcNAc
# Outline: as §1
# [16] = biological target: Neu5Ac(b2-6)GalNAc
# Outline: as §1
# [17] = biological target: Neu5Ac9Ac(a2-3)Gal(b1-3)GlcNAc
# Outline: as §1
# [18] = biological target: Neu5Ac9Ac(a2-3)Gal(b1-4)GlcNAc
# Outline: as §1
# [19] = biological target: Neu5Ac9Ac(a2-6)Gal(b1-4)GlcNAc
# Outline: as §1
# [20] = biological target: Neu5Gc(a2-3)Gal(b1-3)GlcNAc
# Outline: as §1
# [21] = biological target: Neu5Gc(a2-3)Gal(b1-3)[Fuc(a1-4)]GlcNAc
# Outline: as §1
# [22] = biological target: Neu5Gc(a2-3)Gal(b1-4)Glc
# Outline: as §1
# [23] = biological target: Neu5Gc(a2-3)Gal(b1-4)GlcNAc
# Outline: as §1
# [24] = biological target: Neu5Gc(a2-3)Gal(b1-4)GlcNAc(b1-3)Gal(b1-4)GlcNAc(b1-2)Man(a1-3)[Neu5Gc(a2-3)Gal(b1-4)GlcNAc(b1-3)Gal(b1-4)GlcNAc(b1-2)Man(a1-6)]Man(b1-4)GlcNAc(b1-4)GlcNAc
# Outline: as §1
# [25] = biological target: Neu5Gc(a2-3)Gal(b1-4)[Fuc(a1-3)]GlcNAc
# Outline: as §1
# [26] = biological target: Neu5Gc(a2-6)Gal(b1-4)GlcNAc
# Outline: as §1
# [27] = biological target: Neu5Gc(a2-6)GalNAc
# Outline: as §1
# [28] = biological target: Neu5Gc(a2-8)Neu5Ac(a2-3)Gal(b1-4)GlcNAc
# Outline: as §1
# [29] = biological target: Neu5Gc(a2-8)Neu5Gc(a2-3)Gal(b1-4)GlcNAc
# Outline: as §1
# [30] = biological target: Neu5Gc(a2-8)Neu5Gc(a2-3)Gal(b1-4)GlcNAc(b1-3)Gal(b1-4)GlcNAc
# Outline: as §1
# [31] = biological target: Neu5Gc(a2-8)Neu5Gc(a2-6)Gal(b1-4)GlcNAc
# Outline: as §1
# [32] = biological target: Neu5Gc(b2-6)Gal(b1-4)GlcNAc
# Outline: as §1
binder,measurement,setting,value
B1,glycan array binding signal (z-score),[1],-0.075
same,glycan array binding signal (z-score),[2],-0.261
same,glycan array binding signal (z-score),[3],-0.232
same,glycan array binding signal (z-score),[4],-0.115
same,glycan array binding signal (z-score),[5],-0.241
same,glycan array binding signal (z-score),[6],-0.222
same,glycan array binding signal (z-score),[7],1.22
same,glycan array binding signal (z-score),[8],-0.209
same,glycan array binding signal (z-score),[9],-0.305
same,glycan array binding signal (z-score),[10],-0.328
same,glycan array binding signal (z-score),[11],-0.169
same,glycan array binding signal (z-score),[12],-0.258
same,glycan array binding signal (z-score),[13],-0.099
same,glycan array binding signal (z-score),[14],-0.326
same,glycan array binding signal (z-score),[15],-0.238
same,glycan array binding signal (z-score),[16],-0.345
same,glycan array binding signal (z-score),[17],-0.242
same,glycan array binding signal (z-score),[18],-0.318
same,glycan array binding signal (z-score),[19],-0.368
same,glycan array binding signal (z-score),[20],-0.292
same,glycan array binding signal (z-score),[21],-0.36
same,glycan array binding signal (z-score),[22],-0.269
same,glycan array binding signal (z-score),[23],-0.269
same,glycan array binding signal (z-score),[24],-0.14
same,glycan array binding signal (z-score),[25],-0.197
same,glycan array binding signal (z-score),[26],-0.345
same,glycan array binding signal (z-score),[27],-0.264
same,glycan array binding signal (z-score),[28],-0.19
same,glycan array binding signal (z-score),[29],-0.14
same,glycan array binding signal (z-score),[30],-0.3
same,glycan array binding signal (z-score),[31],-0.24
same,glycan array binding signal (z-score),[32],-0.264
